Data: patent US20230355571A1, “METHOD FOR TREATING VIRAL AND BACTERIAL INFECTION THROUGH INHALATION THERAPY” (priority 2020, published 2023)

Conditions: single 2 mL dose, aerosolization, assuming 100% delivery

C=C1CC/C=C(\C)CC[C@@H]2[C@@H]1CC2(C)C [β-caryophyllene]
estimated concentration in the epithelial lining fluid of the lungs: 603 µg/mL
